The values that follow come from article PMC4336329 (PLoS ONE, 2015).

Out of some 310,000 compounds screened, about 2,200 (0.71%) showed an effect of 50% or more. The effect is printed as a negative number. The list shows a part of the results.

The target in this assay is human ether-à-go-go-related gene (hERG) potassium channel (human, UniProt Q12809). Description: primary screen, population patch clamp on CHO cells stably expressing hERG.
Sequence of human ether-à-go-go-related gene (hERG) potassium channel (Q12809 whole entry, looked up): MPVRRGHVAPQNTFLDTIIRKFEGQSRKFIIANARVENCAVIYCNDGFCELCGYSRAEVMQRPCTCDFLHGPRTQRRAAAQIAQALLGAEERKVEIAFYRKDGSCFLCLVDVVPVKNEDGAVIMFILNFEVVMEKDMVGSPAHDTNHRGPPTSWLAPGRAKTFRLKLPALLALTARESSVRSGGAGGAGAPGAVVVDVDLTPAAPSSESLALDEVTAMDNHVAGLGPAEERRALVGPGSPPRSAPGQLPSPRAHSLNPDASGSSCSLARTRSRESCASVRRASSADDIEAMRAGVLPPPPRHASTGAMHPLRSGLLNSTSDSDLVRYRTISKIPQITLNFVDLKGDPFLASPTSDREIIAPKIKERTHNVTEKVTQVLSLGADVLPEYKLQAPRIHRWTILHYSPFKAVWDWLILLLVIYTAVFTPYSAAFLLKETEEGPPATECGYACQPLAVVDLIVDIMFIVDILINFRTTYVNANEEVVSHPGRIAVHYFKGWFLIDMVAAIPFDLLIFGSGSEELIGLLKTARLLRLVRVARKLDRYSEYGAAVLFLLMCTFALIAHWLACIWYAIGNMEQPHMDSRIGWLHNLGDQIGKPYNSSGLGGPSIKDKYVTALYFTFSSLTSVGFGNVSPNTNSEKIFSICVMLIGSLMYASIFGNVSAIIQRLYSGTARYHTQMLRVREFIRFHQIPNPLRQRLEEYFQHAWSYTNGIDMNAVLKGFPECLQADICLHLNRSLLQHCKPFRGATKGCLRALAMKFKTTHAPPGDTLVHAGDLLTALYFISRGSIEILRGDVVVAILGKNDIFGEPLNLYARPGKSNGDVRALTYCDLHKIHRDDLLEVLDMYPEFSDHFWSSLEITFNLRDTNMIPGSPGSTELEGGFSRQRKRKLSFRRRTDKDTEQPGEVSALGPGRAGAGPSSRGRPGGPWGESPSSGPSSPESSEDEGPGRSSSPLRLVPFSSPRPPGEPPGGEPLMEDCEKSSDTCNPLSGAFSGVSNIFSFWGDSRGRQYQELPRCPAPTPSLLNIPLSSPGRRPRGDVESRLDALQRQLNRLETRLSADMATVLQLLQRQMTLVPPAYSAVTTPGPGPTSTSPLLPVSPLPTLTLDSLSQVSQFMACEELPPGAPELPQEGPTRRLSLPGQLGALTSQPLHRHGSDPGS
With `Cn1cnnc1SCC(=O)Nc1sc2c(c1C#N)CCCCC2`, the “hERG current change (%, negative = inhibition) at 1uM” value is listed as -4.87%.

Turning to `CCC1CCc2c(sc3nc(SCC(=O)NCc4ccco4)n(-c4ccccc4)c(=O)c23)C1` (stereo not drawn), the “hERG current change (%, negative = inhibition) at 1uM” value was found to be 9.47%. In the case of `CCN1CCC(NC(=O)Nc2cccc(C(F)(F)F)c2)CC1` it was -14%.

Take `O=C(CCn1nc(-c2ccc(Cl)cc2)ccc1=O)NCc1cccnc1`: the “hERG current change (%, negative = inhibition) at 1uM” value is -7.54%.

On to `COC(=O)C1=NN(c2ccc(C)cc2)C2(S1)SC(C(C)=O)=C(C)N2c1ccccc1` (stereo not drawn), for which the “hERG current change (%, negative = inhibition) at 1uM” value is -0.862%. With `COC(=O)c1ccc(NC(=O)N2CCC(O)(c3cccnc3)CC2)cc1` the figure was 8.63%. With `CCOc1ccc(NC(=O)CN2CCN(c3ccccc3C)CC2)cc1S(=O)(=O)N1CCCC1` the figure was 5.59%; with `O=C(CNC(=O)c1ccccc1F)OCC(=O)c1ccc(Cl)s1`, 12.2%; with `O=C(Nc1cccc(C(=O)O)c1)Nc1cccc2ccccc12`, 22.4%.

`CN(C)C=Nc1nonc1N`: the “hERG current change (%, negative = inhibition) at 1uM” value is recorded as 5.74%. In the case of `Cc1ccc(S(=O)(=O)NCc2ccco2)c(C)c1C` it was 4.69%; in that of `CCC(=O)N1CCc2cc(S(=O)(=O)NCCC(=O)Nc3ccccc3C)ccc21`, 10.4%.

Turning to `CN1CCc2c(n(CC(O)CNCc3ccccc3)c3ccccc23)C1=O.Cl` (stereo not drawn), the “hERG current change (%, negative = inhibition) at 1uM” value was -15%. Take `O=CN1CCN(c2c([N+](=O)[O-])c(=O)oc3ccccc23)CC1`: the “hERG current change (%, negative = inhibition) at 1uM” value stood at 14%. With `O=C(NC1CCCCCC1)C1Cc2ccccc2CN1C(=O)c1ccco1` (stereo not drawn) the figure was 14.7%; with `Cc1ccc(NS(=O)(=O)c2ccc(-c3coc(C)n3)cc2)c(Br)c1`, 12.2%.

For the compound `CCOC(=O)N1CCN(C(=O)c2noc3c2COc2ccccc2-3)CC1`, the “hERG current change (%, negative = inhibition) at 1uM” value came out at 5.65%. With `O=C(C1=C[C@H](c2ccc(C(F)(F)F)cc2)C[C@H](OCc2ccc(CO)cc2)O1)N1CCN(Cc2ccc3c(c2)OCO3)CC1`, the “hERG current change (%, negative = inhibition) at 1uM” value is reported as -9.65%. In the case of `Cc1cc(=O)[nH]c(Nc2cccc(C(F)(F)F)c2)n1` it was -2.7%; in that of `O=C(C1CC2CCC1C2)N1CCN(Cc2ccc3c(c2)OCO3)CC1` (stereo not drawn), 9.72%. With `O=C(N/N=C/c1cc(Cl)cc([N+](=O)[O-])c1O)NC12CC3CC(CC(C3)C1)C2` the figure was 12.2%; with `CCCCNC(=S)NNC(=O)c1nn(C)c(C)c1Cl`, 9.11%; with `c1ccc(C2c3[nH]c4ccccc4c3CCN2Cc2cccn2-c2ccccn2)nc1` (stereo not drawn), -4.99%.

With `CCOC(=O)[C@@]12C(=O)C(=O)N[C@]1(c1ccccc1)C1OCCCC12` (stereo partly drawn), the “hERG current change (%, negative = inhibition) at 1uM” value was found to be 3.58%.

For `COc1ccc(NC(=O)CSc2nnnn2C)c([N+](=O)[O-])c1`, the “hERG current change (%, negative = inhibition) at 1uM” value is listed as 12.2%. With `COc1ccccc1/C=N/Nc1nncc2ccccc12` the figure was 18.1%; with `Cc1c(C(=O)OCC2CCCO2)[nH]c2c1C(=O)CC(c1ccco1)C2` (stereo not drawn), 7.54%. In the case of `O=C(/C=C/c1ccco1)Nc1ccccc1C(=O)O` it was 17%. In the case of `CCOC(=O)c1cnc2ccc(Br)cc2c1NCCCN1CCOCC1` it was -0.7%; in that of `CCCS(=O)(=O)N1CCCC(C(=O)NCCCN2CCN(c3ccc(F)cc3)CC2)C1` (stereo not drawn), -28.6%; in that of `O=C(CN(C(=O)c1nsc(Cl)c1Cl)c1cccc(F)c1)NC1CCCC1`, 15.3%. As to `CC(c1ccccc1)n1cc(C(=O)NCc2cccnc2)nn1` (stereo not drawn), the “hERG current change (%, negative = inhibition) at 1uM” value is 16%.

In the case of `O=C(Nc1ccc2nc(N3CCOCC3)sc2c1)c1ccccc1`, the “hERG current change (%, negative = inhibition) at 1uM” value is on record as 2.08%.

`CCCC(=O)Nc1ccc(C(=O)NCC(=O)OCC)cc1`: the “hERG current change (%, negative = inhibition) at 1uM” value was determined as 12.1%. In the case of `O=C(CSCCOc1ccccc1)NCc1ccncc1` it was 8.57%. With `CCOc1cc(/C=N/NC(=O)CNc2ccc(C)cc2)ccc1OC(=O)c1ccccc1` the figure was -0.419%. In the case of `Fc1ccc(CNC(=S)Nc2ccc(Cl)cc2Cl)cc1` it was 13.2%; in that of `O=C1CCCN1S(=O)(=O)c1ccc(F)cc1`, 7.6%; in that of `Cn1c(C(=O)N2CCCC(Nc3ccc(F)cc3)C2)cc2ccccc21` (stereo not drawn), 10.9%. `Cc1ccc(S(=O)(=O)n2c(=O)oc3ccccc32)cc1`: the “hERG current change (%, negative = inhibition) at 1uM” value is given as 7.35%. In the case of `Cc1cc(NC(=O)CSc2ccc3nnc(-c4ccccn4)n3n2)no1` it was 10%. With `Cc1cc(C)n(S(=O)(=O)c2cc(C)c(C)cc2C)n1` the figure was 8.84%; with `Cc1cc(C)c(S(=O)(=O)N(CC(=O)N2CCCC2)C2CCCCC2)c(C)c1`, -13.5%. In the case of `COC(=O)C1(Cc2cc(-c3ccc([N+](=O)[O-])cc3)no2)CCN(C(=O)OC(C)(C)C)CC1` it was 14.1%.

On to `O=C(O)CCn1c(SCc2ccccc2)nc2ccccc21`, for which the “hERG current change (%, negative = inhibition) at 1uM” value was 7.33%.
